# Assay results: PubChem BioAssay AID2675 (National Center for Advancing Translational Sciences (NCATS), 2010)
# The whole screen tested about 280,000 compounds, of which about 100 (0.036%) were called active. This list was built around the results that the source calls inconclusive (neither active nor inactive); the mix of calls is not that of the screen. Calls follow the shape of the dose curve; as a rule, active = well fitted inhibition curve with a large enough effect in the signal ratio, with a control signal flat (not every such curve was filed as active); inconclusive = small, poorly fitted or top-dose-only effect, or effect the other way, or a change in a side signal; inactive = no such curve, though single readings can be large or run the other way; the % refers to the signal ratio. Potencies of inconclusive entries are doubtful fits and often do not repeat. “Side channel” marks fits to a control or component signal instead of the main read-out.
# Target: Muscleblind-like protein 1 (Homo sapiens) (UniProt Q9NR56)
# Experiment: qHTS Assay for Inhibitors of MBNL1-poly(CUG) RNA binding
# Conditions: TR-FRET MBNL1-His/biotin-(CUG)12 binding, 665/545 ratio; activity change, negative = inhibition: at 57.5 µM (top of the series)
# Method in brief: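 His-tagged MBNL1 binding to biotinylated (CUG)12 RNA was measured by TR-FRET using terbium anti-His antibody (0.055 ng/ul final) and streptavidin-XL665 (5 nM final). Compounds were titrated 92 nM to 58 uM; 60 min at room temperature.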
# % is scaled to controls: 0 for no effect and ±100 for the full control effect; potency is read from the fitted curve at half-maximal effect; tags tell the direction and shape of the fitted curve or compound fluorescence and quenching.
# Sequence of UniProt Q9NR56 (Q9NR56 whole entry, looked up): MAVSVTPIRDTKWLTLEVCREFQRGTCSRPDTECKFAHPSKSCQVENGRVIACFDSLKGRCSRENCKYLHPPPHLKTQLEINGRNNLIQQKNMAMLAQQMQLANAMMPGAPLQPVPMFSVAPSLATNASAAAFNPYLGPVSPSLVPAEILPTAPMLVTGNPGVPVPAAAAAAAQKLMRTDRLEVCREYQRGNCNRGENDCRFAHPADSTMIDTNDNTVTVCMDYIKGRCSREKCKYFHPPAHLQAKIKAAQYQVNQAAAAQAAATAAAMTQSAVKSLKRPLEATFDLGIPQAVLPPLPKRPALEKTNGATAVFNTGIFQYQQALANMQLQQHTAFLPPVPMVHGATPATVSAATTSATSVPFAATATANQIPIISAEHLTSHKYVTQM
SMILES,Potency,"activity change, negative = inhibition"
CCOc1ccc(/C=C2\SC(=S)N(CCC(=O)N(CCO)c3ccccc3)C2=O)cc1,"inconclusive: 28.2 µM [quencher, partial curve]",–
COC(=O)c1cc2c(cc1[N+](=O)[O-])OCO2,"inconclusive: 20 µM [quencher, side channel, partial curve]",–
Cn1cc(CCCC(=O)NCc2ccccc2)c2ccccc21,–,inactive: -4.58%
CCOc1ccc(-n2c(SCC(=O)Nc3cc(C)on3)nc3c(c2=O)SCC3)cc1,"inconclusive: 3.16 µM [quencher, side channel, full curve]",–
O=C1c2ccccc2C(=O)C1(CO)c1ccccc1,"inconclusive: 28.2 µM [quencher, side channel, partial curve]",–
COc1ccc2[nH]c(C(=O)N/N=C/c3ccc(OC)c(O)c3)cc2c1,"inconclusive: 31.6 µM [quencher, side channel, single point]",–
CCSc1nnc(NC(=O)c2cccnc2Cl)s1,"inconclusive: 7.08 µM [quencher, side channel, single point]",–
O=C(CSc1n[nH]c(=O)[nH]c1=O)Nc1ccc2c(c1)C(=O)c1ccccc1C2=O,"inconclusive: 15.8 µM [quencher, side channel, partial curve]",–
CC(=O)c1ccc(N2CCN(C(=O)Cc3ccccc3)CC2)c(F)c1,–,inactive: 8.12%
Cn1c(N/N=C/c2cc3ccccc3nc2Cl)nc2ccccc21,"inconclusive: 6.31 µM [quencher, side channel, full curve]",–
CC(NC(=O)c1ccc(S(=O)(=O)N(C)C)cc1)c1ccccc1 (stereo unspecified),–,inactive: 6.59%
CCN(CC)CCN1C(=O)C(=O)/C(=C(/O)c2ccncc2)C1c1ccccc1 (stereo unspecified),"inconclusive: 39.8 µM [quencher, side channel, single point]",–
CC1CCN(S(=O)(=O)c2ccc(NC(=S)NC(=O)c3ccc(Cl)cc3)cc2)CC1,"inconclusive: 100 µM [inhibitor, single point]",–
Cc1cccc(-c2n[nH]c(=S)n2/N=C/C=C/c2ccco2)c1,–,inactive: 5.51%
O=C(CCN1CCN(c2ccc([N+](=O)[O-])cc2)CC1)c1ccc(Cl)cc1,–,inactive: 9.15%
CCOC(=O)Nc1oc2ccccc2c(=O)c1C,"inconclusive: 7.94 µM [quencher, side channel, single point]",–
CN1CCN(C(=O)c2cc3nc(-c4ccccc4)cc(-c4ccccc4)n3n2)CC1,"inconclusive: 15.8 µM [quencher, partial curve]",–
CO/N=C/NC(=O)NOCc1ncc(C(F)(F)F)cc1Cl,–,inactive: -2.69%
Cn1cccc1Cc1nnc(SCC(=O)Nc2nccs2)n1C,–,inactive: 0.873%
O=C(O)c1ccc2c(c1)C(=O)/C(=C/c1ccccc1)C2=O,"inconclusive: 20 µM [quencher, side channel, partial curve]",–
Cc1nnc(NC(=O)c2nc(S(=O)(=O)Cc3ccccc3)ncc2Cl)s1,–,inactive: 16.3%

SMILES,Potency,"activity change, negative = inhibition"
COc1ccccc1-[n+]1c(C)cc(/C=C2\Sc3ccccc3N2C)cc1C,"inconclusive: 14.1 µM [quencher, side channel, partial curve]",–
CCCNC(=O)c1nn2cc(Br)cnc2c1Cl,"inconclusive: 22.4 µM [quencher, side channel, partial curve]",–
N#C/C(=C\c1ccc(-c2cccc([N+](=O)[O-])c2)o1)C(=O)NCCN1CCOCC1,"inconclusive: 14.1 µM [quencher, side channel, partial curve]",–
COc1ccc(/C=C2\NC(=S)N(CC3CCCO3)C2=O)c(OC)c1C (stereo unspecified),"inconclusive: 4.47 µM [quencher, side channel, partial curve]",–
O=C(N/N=C/c1ccco1)c1ccc(Br)o1,"inconclusive: 22.4 µM [quencher, side channel, single point]",–
N#Cc1c(N)nc2c3c(sc(=N)c2c1N)NC(=O)CC3c1ccccc1 (stereo unspecified),"inconclusive: 35.5 µM [fluorescent, side channel, single point]",–
Cc1cc2nc3ccc(=[N+](C)C)cc-3sc2cc1N,"inconclusive: 2.51 µM [quencher, side channel, partial curve]",–
Cc1ccc2cc(CCNC(=O)CC(C)(C)C)c(=O)[nH]c2c1C,"inconclusive: 3.98 µM [fluorescent, side channel, single point]",–
CCOC(=O)CCCCC(=O)c1[nH]c(=O)[nH]c1C[n+]1ccc(C)cc1,"inconclusive: 50.1 µM [inhibitor, partial curve]",–
O=[N+]([O-])c1cccc(-n2nnnc2CN2CCCCCC2)c1,"inconclusive: 22.4 µM [quencher, side channel, single point]",–
CCCCN(C)CCNC(=O)c1cn(C)c(=O)c2c1c1ccccc1n2C,"inconclusive: 25.1 µM [quencher, side channel, single point]",–
Cc1nc2ccccc2c2oc(C(=O)N3CCN(C4CCCCC4)CC3)cc12,–,inactive: -4.63%
Cc1c(CC(=O)NCC(=O)O)c(=O)oc2cc3c(cc12)CCC(C)(C)O3,–,inactive: 17.6%
CC(=O)c1nnn(-c2nc(N3CCCC3)nc(N(c3ccccc3)c3ccccc3)n2)c1C,–,inactive: -1.61%
O=C(c1cc2cc3ccc(Cl)cc3nc2o1)N1CCCCCC1,"inconclusive: 2.82 µM [quencher, side channel, full curve, poor fit]",–
O=C(CCCN1C(=O)/C(=C/c2cccs2)SC1=S)Nc1cccc(O)c1,"inconclusive: 20 µM [quencher, side channel, partial curve]",–
Cc1cccnc1NC(=O)CCNS(=O)(=O)c1ccc2c(c1)c(=O)n(C)c(=O)n2C,–,inactive: -14.9%
CN(C)c1ccc(/C=N/NC(=O)CNC(=O)c2ccco2)cc1,"inconclusive: 12.6 µM [quencher, side channel, partial curve, poor fit]",–
CC1CCCCC1NC(=O)CSc1ccc([N+](=O)[O-])cc1 (stereo unspecified),"inconclusive: 17.8 µM [quencher, side channel, single point]",–
CC1=Nc2ccc(C)cc2/C1=C/c1c(N)n2nc(CC(=O)N3CCOCC3)sc2nc1=O,"inconclusive: 3.98 µM [quencher, side channel, full curve]",–
